Structures can show the parent of a compound that is named as a salt. This is one part of the list. Most values come without repeats; read them as rough.
What was measured:
OVCAR4 = assay: log2 surviving fraction (library drug vs vehicle, or drug + carboplatin vs carboplatin alone; relative to plate median); ovarian cancer lines: OVCAR4 is platinum-sensitive and Ov4Carbo platinum-resistant; higher = more cell survival; conditions: library drug concentration 10 µM, 7 days
Ov4Carbo = assay: as above; conditions: library drug concentration 10 µM, 7 days

Row | SMILES | log2 surviving fraction (OVCAR4; carboplatin co-treatment 0 µM) | log2 surviving fraction (OVCAR4; carboplatin co-treatment 5 µM) | log2 surviving fraction (Ov4Carbo; carboplatin co-treatment 0 µM) | log2 surviving fraction (Ov4Carbo; carboplatin co-treatment 5 µM)
1 | CN(C(=O)CN(CCO)CC(=O)N(C)C(C)(C)Cc1ccccc1)C(C)(C)Cc1ccccc1 [Oxethazaine] | -5.65 | -4.65 | -4.24 | -3.83
2 | NNC(=O)c1ccncc1 [Isoniazid (Tubizid)] | 1.35 | -0.946 | 0.00809 | -0.813
3 | CN1CCc2cccc3c2[C@H]1Cc1ccc(O)c(O)c1-3 [R-(-)-Apomorphine HCl Hemihydrate] | -1.27 | -0.977 | -0.9 | -0.348
4 | OCCOCCN1CCN(C2=Nc3ccccc3Sc3ccccc32)CC1 [Quetiapine fumarate (Seroquel)] | -2.69 | -2.69 | 0.0314 | -0.293
5 | CN(C)CCN1C(=O)c2ccccc2N(C)c2ccccc21 [Dibenzepine HCl] | -0.0117 | 0.111 | 0.458 | -0.585
6 | C#Cc1cccc(Nc2ncnc3cc(OCCOC)c(OCCO)cc23)c1 [OSI-420 (Desmethyl Erlotinib)] | -4.08 | -1.97 | -2.62 | -3.13
7 | C[C@H]1NC(=O)NC1=O [Methylhydantoin-5-(D)] | 1.1 | 0.0128 | 0.419 | 1.17
8 | CCOc1nc2cccc(C(=O)OCc3oc(=O)oc3C)c2n1Cc1ccc(-c2ccccc2-c2noc(=O)[nH]2)cc1 [Azilsartan Medoxomil (TAK-491)] | 1.19 | 0.656 | 0.624 | 0.00879
9 | OC(CNCC(O)C1CCc2cc(F)ccc2O1)C1CCc2cc(F)ccc2O1 (stereo not given) [Nebivolol (Bystolic)] | -6.94 | -6.17 | -6.96 | -6.63
10 | CN(C)CCc1c[nH]c2ccc(CS(=O)(=O)N3CCCC3)cc12 [Almotriptan malate (Axert)] | -0.135 | 0.256 | -0.134 | 0.604
11 | COc1ccc(C(CN(C)C)C2(O)CCCCC2)cc1 (stereo not given) [Venlafaxine] | -3.37 | -0.301 | -7.43 | 0.587
12 | CCOC(CN1CCN(CC(C)C(=O)c2ccccc2)CC1)c1ccccc1 (stereo not given) [Eprazinone 2HCl] | 0.0788 | 0.597 | 0.189 | 0.439
13 | CN1c2ccccc2C(NCCCCCCC(=O)O)c2ccc(Cl)cc2S1(=O)=O (stereo not given) [Tianeptine sodium] | 1.66 | 1.19 | 1.78 | 0.39
14 | CCN1CCCC1CNC(=O)c1cc(S(=O)(=O)CC)c(N)cc1OC (stereo not given) [Amisulpride] | -0.644 | 0.00607 | 0.758 | 1.09
15 | C[C@@H]1CC[C@H]2[C@@H](C)C(=O)O[C@@H]3O[C@@]4(C)CC[C@@H]1[C@]32OO4 [Artemisinin] | -0.391 | -0.752 | -0.667 | 1.02
16 | CC(=O)[C@H]1CC[C@H]2[C@@H]3C=CC4=CC(=O)CC[C@@]4(C)[C@@H]3CC[C@]12C [Dydrogesterone] | 0.626 | -0.486 | 0.456 | 0.865
17 | CC(=O)N1CCN(c2ccc(OCC3COC(Cn4ccnc4)(c4ccc(Cl)cc4Cl)O3)cc2)CC1 (stereo not given) [Ketoconazole] | -0.506 | -1.55 | -2.87 | -0.341
18 | CC[C@H](C)C(=O)O[C@H]1CCC=C2C=C[C@H](C)[C@H](CC[C@@H]3C[C@@H](O)CC(=O)O3)[C@H]21 [Mevastatin] | -1.47 | -1.16 | -2.15 | -2.09
19 | C[C@@H]1C(=O)O[C@H]2C[C@@]34[C@H]5C[C@@H](C(C)(C)C)[C@]36[C@@H](OC(=O)[C@@H]6O)O[C@@]4(C(=O)O5)[C@]21O [Ginkgolide A] | -0.955 | 0.722 | 0.244 | -8.2
20 | O=C(O)/C=C/c1ccc(Cn2ccnc2)cc1 [Ozagrel] | 0.587 | -0.0626 | 0.391 | -0.183
21 | c1ccc2c(CC3=NCCN3)cccc2c1 [Naphazoline hydrochloride (Naphcon)] | -0.395 | -0.651 | 0.161 | -0.0479
22 | CC[C@@H]1/C=C(\C)C[C@H](C)C[C@H](OC)[C@H]2O[C@@](O)(C(=O)C(=O)N3CCCC[C@H]3C(=O)O[C@H](/C(C)=C/[C@@H]3CC[C@H](Cl)[C@H](OC)C3)[C@H](C)[C@@H](O)CC1=O)[C@H](C)C[C@@H]2OC [Pimecrolimus] | -1.91 | -1.84 | -1.68 | -1.04
23 | CN(C/C=C/C#CC(C)(C)C)Cc1cccc2ccccc12 [Terbinafine hydrochloride (Lamisil)] | 0.203 | 0.693 | 0.657 | 0.98

Row | SMILES | log2 surviving fraction (OVCAR4; carboplatin co-treatment 0 µM) | log2 surviving fraction (OVCAR4; carboplatin co-treatment 5 µM) | log2 surviving fraction (Ov4Carbo; carboplatin co-treatment 0 µM) | log2 surviving fraction (Ov4Carbo; carboplatin co-treatment 5 µM)
24 | CC[C@H]1OC(=O)[C@H](C)[C@@H](O[C@H]2C[C@@](C)(OC)[C@@H](O)[C@H](C)O2)[C@H](C)[C@@H](O[C@@H]2O[C@H](C)C[C@H](N(C)C)[C@H]2O)[C@](C)(OC)C[C@@H](C)C(=O)[C@H](C)[C@@H](O)[C@]1(C)O [Clarithromycin (Biaxin, Klacid)] | 0.782 | 0.551 | 0.333 | 0.332
25 | C[C@]12C/C(=C/O)C(=O)C[C@@H]1CC[C@@H]1[C@@H]2CC[C@@]2(C)[C@H]1CC[C@]2(C)O [Oxymetholone] | -0.0167 | 0.333 | -0.689 | 0.701
26 | CC(=O)[C@@]1(O)CC[C@H]2[C@@H]3CCC4=CC(=O)CCC4=C3[C@@H](c3ccc(N(C)C)cc3)C[C@@]21C [Ulipristal] | -1.51 | -1.06 | -1.27 | 0.227
27 | Cc1ccc(O)c([C@H](CCN(C(C)C)C(C)C)c2ccccc2)c1 [Tolterodine tartrate (Detrol LA)] | -0.0458 | -0.496 | -1.45 | -0.038
28 | Clc1cccc(Cl)c1NC1=NCCN1 [Clonidine hydrochloride (Catapres)] | 1.01 | 0.723 | 0.969 | 0.755
29 | O=C([O-])C(O)[C@H](O)[C@@H](O)[C@H](O)[C@H](O)CO.O=C([O-])C(O)[C@H](O)[C@@H](O)[C@H](O)[C@H](O)CO.[Ca+2] (stereo not given in full) [Calcium Gluceptate] | 1.03 | 0.289 | -0.552 | 0.964
30 | CN(C)CCCSC(=N)N [Dimaprit 2HCl] | -0.14 | -0.35 | 0.0845 | -0.00861
31 | CC(=O)OCC(=O)[C@@]12OC(C)(C)O[C@@H]1C[C@H]1[C@@H]3C[C@H](F)C4=CC(=O)C=C[C@]4(C)[C@@]3(F)[C@@H](O)C[C@@]12C [Fluocinonide (Vanos)] | -0.229 | 0.0201 | -0.00579 | 0.9
32 | COCCCOc1cc(C[C@@H](C[C@H](N)[C@@H](O)C[C@H](C(=O)NCC(C)(C)C(N)=O)C(C)C)C(C)C)ccc1OC [Aliskiren hemifumarate] | -0.434 | -0.975 | -0.736 | -0.594
33 | CSc1ccc2c(c1)N(CCC1CCCCN1C)c1ccccc1S2 (stereo not given) [Thioridazine HCl] | -7.85 | -7.33 | -7.11 | -6.51
34 | O=C(O)c1cccnc1 [Niacin (Nicotinic acid)] | 0.858 | 0.173 | 0.0878 | 0.516
35 | CC1(C)S[C@@H]2[C@H](NC(=O)[C@H](N)c3ccc(O)cc3)C(=O)N2[C@H]1C(=O)O [Amoxicillin sodium (Amox)] | -0.471 | 0.414 | -0.0146 | 0.273
36 | c1ccc2c(c1)CCCC2C1=NCCN1 (stereo not given) [tetrahydrozoline hydrochloride] | 0.727 | 0.869 | 0.442 | 0.178
37 | CC(=O)N[C@H]1[C@H]([C@H](O)[C@H](O)CO)OC(C(=O)O)=C[C@@H]1NC(=N)N [Zanamivir (Relenza)] | 0.744 | -0.0163 | -0.396 | 0.215
38 | CC12CC3CC(C)(C1)CC(N)(C3)C2 [Memantine HCl (Namenda)] | -0.539 | 0.0762 | -1.36 | -0.914
39 | CCC1(c2cccc(O)c2)CCCCN(C)C1 (stereo not given) [Meptazinol HCl] | -2.05 | -0.253 | -0.0309 | 0.412
40 | CC(C[N+](C)(C)C)OC(N)=O (stereo not given) [Bethanechol chloride] | 0.765 | 0.811 | 0.574 | 0.592
41 | C[C@@H](O)[C@H]1C(=O)N2C(C(=O)O)=C(S[C@@H]3CN[C@H](CNS(N)(=O)=O)C3)[C@H](C)[C@H]12 [Doripenem Hydrate] | -0.186 | 1.03 | 0.84 | 0.154
42 | C#CCN(C)CCCOc1ccc(Cl)cc1Cl [Clorgyline HCl] | -0.276 | 0.133 | 0.608 | -0.331
43 | CCOC(=O)n1ccn(C)c1=S [Carbimazole] | 0.339 | 0.374 | 0.157 | 0.392
44 | NCC[C@H](O)C(=O)N[C@@H]1C[C@H](N)[C@@H](O[C@H]2O[C@H](CN)[C@@H](O)[C@H](O)[C@H]2O)[C@H](O)[C@H]1O[C@H]1O[C@H](CO)[C@@H](O)[C@H](N)[C@H]1O [Amikacin hydrate] | 0.405 | -0.85 | 0.749 | 1.45
45 | CN[C@H](CC(C)C)C(=O)N[C@H]1C(=O)N[C@@H](CC(N)=O)C(=O)N[C@H]2C(=O)N[C@H]3C(=O)N[C@H](C(=O)N[C@H](C(=O)O)c4cc(O)cc(O)c4-c4cc3ccc4O)[C@H](O)c3ccc(c(Cl)c3)Oc3cc2cc(c3O[C@@H]2O[C@H](CO)[C@@H](O)[C@H](O)[C@H]2O[C@H]2C[C@](C)(N)[C@H](O)[C@H](C)O2)Oc2ccc(cc2Cl)[C@H]1O [Vancomycin HCl (Vancocin)] | -0.0355 | 0.604 | 0.548 | 0.318
